{
  "source": "PubChem BioAssay AID504832",
  "about": "(National Center for Advancing Translational Sciences (NCATS), 2011)",
  "note": "Out of some 310,000 compounds screened, about 18,000 (5.8%) were called active. Inconclusive results, whose numbers are uncertain, are shown with a selection of clear calls. The call rests on the fitted dose curve; in most records, active means well fitted inhibition curve with a large enough effect; inconclusive means small, poorly fitted or top-dose-only effect, or another doubt; inactive means no such curve, though single readings can be large or run the other way. No potency is given beside an inconclusive call; the fits are too rough. On the % scale 0 is the no-effect control and ±100 the full control effect; potency means the concentration at half of the fitted maximal effect; tags describe the fitted curve by direction and shape.",
  "data": [
    {"test": "Primary qHTS for delayed death inhibitors of the malarial parasite plastid, 48 hour incubation", "details": "P. falciparum luciferase growth in erythrocytes; series mostly up to 28.7 µM; activity change, negative = inhibition: at the top concentration", "method_in_brief": "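First compound was added to culture medium, then infected red cells at 0.1% parasitemia and 2% hematocrit (final). After incubation at 37 C under 5% CO2, luciferase detection reagent was dispensed and light output recorded.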", "values": [
      {"smiles": "CCc1cccc(NC(=O)c2sc3nc4n(c(=O)c3c2C)CCC4)c1", "activity change, negative = inhibition": "inactive: 41.8%"},
      {"smiles": "COC(=O)C(NC(=O)c1ccccc1Cl)(Nc1ncc(S(=O)(=O)c2ccc([N+](=O)[O-])cc2)s1)C(F)(F)F", "note": "(stereo unspecified)", "Potency": "inconclusive [inhibitor, single point]"},
      {"smiles": "CCCc1cc(=O)oc2c(CNc3ccc(OCC)cc3)c(O)ccc12", "Potency": "inconclusive [inhibitor, single point]"},
      {"smiles": "CCCCCN1CC(=O)N2[C@@H](Cc3c([nH]c4ccccc34)C2(C)C)C1=O", "Potency": "inconclusive [inhibitor, partial curve]"},
      {"smiles": "CCOc1ccc(Nc2cc(=O)[nH]c(=O)[nH]2)cc1", "activity change, negative = inhibition": "inactive: 2.97%"},
      {"smiles": "CCOc1ccc(OCCn2nnc3ccccc3c2=O)cc1", "activity change, negative = inhibition": "inactive: 354%"},
      {"smiles": "C=CCOc1ccccc1/C=c1\\sc2nc(=O)c(C)nn2c1=O", "Potency": "inconclusive [inhibitor, full curve, poor fit]"},
      {"smiles": "CCOc1ccc(-n2c(SCC(=O)Nc3ccc4c(c3)OCO4)nc3c(c2=O)SCC3)cc1", "Potency": "inconclusive [inhibitor, partial curve]"},
      {"smiles": "COc1cccc(-c2nc(OC(C)C)c3ccccc3n2)c1", "Potency": "inconclusive [inhibitor, partial curve]"},
      {"smiles": "Cc1cc(-c2ccccc2N)n[nH]1", "Potency": "inconclusive [inhibitor, full curve, poor fit]"},
      {"smiles": "Cc1cc(C(=O)CSc2nnc3c(Cl)cc(Cl)cn23)c(C)n1C", "Potency": "inconclusive [inhibitor, full curve, poor fit]"},
      {"smiles": "C/C(CC(=O)Nc1cccc2c1CCCC2)=N\\NC(=O)Cc1ccccc1", "activity change, negative = inhibition": "inactive: -6.17%"},
      {"smiles": "CC1CCCCN1C(=O)CSc1nnc(-c2ccccc2O)o1", "note": "(stereo unspecified)", "activity change, negative = inhibition": "inactive: 44.9%"},
      {"smiles": "COc1ccc(C(C)C)cc1S(=O)(=O)N1CCC(C(=O)N2CCN(C)CC2)CC1", "activity change, negative = inhibition": "inactive: 26.9%"},
      {"smiles": "COCCN1CCN(C(=O)C2CCC(=O)N(CCc3ccc(Cl)cc3)C2)CC1", "note": "(stereo unspecified)", "activity change, negative = inhibition": "inactive: -9.93%"},
      {"smiles": "O=C1C(Cc2ccccc2)Nc2ncnc(N3CCOCC3)c2N1Cc1ccc(Cl)cc1", "note": "(stereo unspecified)", "Potency": "active: 9.28 µM"},
      {"smiles": "Cc1ccc2c(c1)N(CC(=O)NCCCN1CCCCC1)C(=O)c1cccnc1O2", "activity change, negative = inhibition": "inactive: 5.21%"},
      {"smiles": "COc1ccc(O)c(CN2CCCC(C(=O)Nc3cccc(-n4cccn4)c3)C2)c1", "note": "(stereo unspecified)", "Potency": "inconclusive [inhibitor, partial curve]"},
      {"smiles": "N#Cc1ccc2ccn(CC(=O)N3CCCc4ccccc43)c2c1", "Potency": "inconclusive [inhibitor, single point]"},
      {"smiles": "Cc1cc(C)n(CC(O)COc2ccc(Cl)cc2)n1", "note": "(stereo unspecified)", "Potency": "inconclusive [inhibitor, partial curve]"},
      {"smiles": "COc1ccc(C(=O)Nc2nc(C)cc(C)n2)cc1", "activity change, negative = inhibition": "inactive: -14.2%"},
      {"smiles": "CC(C)Oc1ccc(CNS(=O)(=O)c2csc(C(N)=O)c2)cc1", "Potency": "active: 6.57 µM"},
      {"smiles": "Cc1ccccc1OCC(O)Cn1c(NCc2ccccc2)nc2c1c(=O)[nH]c(=O)n2C", "note": "(stereo unspecified)", "Potency": "inconclusive [inhibitor, full curve]"},
      {"smiles": "COc1ccc(C(CNC(=O)CSc2ccccc2F)N2CCOCC2)cc1", "note": "(stereo unspecified)", "Potency": "inconclusive [inhibitor, single point]"},
      {"smiles": "Cc1cccc(Cn2ccc(NC(=O)c3cccnc3)n2)c1", "activity change, negative = inhibition": "inactive: 18%"},
      {"smiles": "CC(=O)N1CCN(S(=O)(=O)c2cccc(C(=O)N(C)Cc3ccc(C)o3)c2)CC1", "Potency": "inconclusive [inhibitor, single point]"},
      {"smiles": "CCN(c1ccccc1C(=O)O)S(=O)(=O)c1ccc2[nH]c(=O)[nH]c2c1", "activity change, negative = inhibition": "inactive: 14%"},
      {"smiles": "Cc1ccc(C(=O)NNC(=O)CSc2n[nH]c(-c3cccnc3)n2)cc1", "activity change, negative = inhibition": "inactive: 32.8%"},
      {"smiles": "CC(=O)N1N=C(c2ccc(Br)cc2)OC1(C)CC(=O)Nc1ccccc1", "note": "(stereo unspecified)", "activity change, negative = inhibition": "inactive: 8.37%"},
      {"smiles": "Cc1ccc(C)c(Nc2nc3ccc(C)cc3n3cnnc23)c1", "Potency": "inconclusive [inhibitor, partial curve, poor fit]"},
      {"smiles": "CCOC(=O)/C(=C\\c1ccc(OC(F)F)cc1)C1=Nn2c(nnc2-c2ccc(Cl)cc2)SC1", "Potency": "inconclusive [inhibitor, partial curve, poor fit]"},
      {"smiles": "O=c1cc(CSc2nnc(COc3ccccc3)o2)c2ccccc2[nH]1", "Potency": "inconclusive [inhibitor, single point]"},
      {"smiles": "COc1cc(OC)cc(C(=O)Nc2ccc(N3CCOCC3)cc2N2CCOCC2)c1", "Potency": "inconclusive [inhibitor, partial curve]"},
      {"smiles": "O=C(CCc1nnc(CCCCc2ccccc2)o1)N1CCC(N2CCCC2)CC1", "Potency": "inconclusive [inhibitor, single point]"},
      {"smiles": "O=C(CSc1nc2cccnc2n1Cc1ccccc1)NC1CCCCC1", "Potency": "active: 10.4 µM"},
      {"smiles": "CCOc1ccc(Nc2ccc(S(=O)(=O)N3CCN(C)CC3)cc2[N+](=O)[O-])cc1OCC", "Potency": "active: 11.7 µM"},
      {"smiles": "CCN(C(=O)CN1C(=O)NC(c2ccccc2)(c2ccc(C)c(C)c2)C1=O)C1CCCCC1", "note": "(stereo unspecified)", "Potency": "active: 6.57 µM"},
      {"smiles": "NC(=O)/C(=C/c1ccc2c(c1)OCO2)NC(=O)c1ccco1", "activity change, negative = inhibition": "inactive: -4.59%"},
      {"smiles": "CCOc1ccc(S(=O)(=O)NCCC(=O)NCC(c2ccc(F)cc2)N2CCOCC2)cc1", "note": "(stereo unspecified)", "Potency": "inconclusive [inhibitor, single point]"},
      {"smiles": "Cn1c(SCC(=O)NNC(=O)Cc2ccccc2)nnc1-c1ccc(Cl)cc1", "Potency": "inconclusive [inhibitor, partial curve, poor fit]"},
      {"smiles": "O=C(CCN1C(=O)S/C(=C\\c2ccccc2)C1=O)N1CCCCC1", "activity change, negative = inhibition": "inactive: -5.13%"},
      {"smiles": "CC(=O)Nc1sc(C)c(C)c1CN1CCN(S(=O)(=O)c2ccccc2)CC1", "Potency": "inconclusive [inhibitor, single point]"},
      {"smiles": "C/C(=N\\NC(=O)Cn1ccc(C(F)(F)F)n1)c1ccco1", "activity change, negative = inhibition": "inactive: -8.18%"},
      {"smiles": "Cc1nc2nc(SCc3ccc([N+](=O)[O-])cc3)[nH]c2cc1Br", "activity change, negative = inhibition": "inactive: -2.91%"},
      {"smiles": "NC(=O)c1ccsc1NC(=O)c1ccc(S(=O)(=O)N2CCCc3ccccc32)cc1", "Potency": "inconclusive [inhibitor, partial curve]"},
      {"smiles": "COc1cccc(C(=O)NCC(c2ccco2)N2CCc3ccccc3C2)c1", "note": "(stereo unspecified)", "Potency": "inconclusive [inhibitor, full curve, poor fit]"}
    ]}
  ]
}
